PubChem BioAssay AID493208 (National Center for Advancing Translational Sciences (NCATS), 2011)
Hit rate of the full screen: of about 44,000 compounds, about 340 (0.77%) were called active. Another 5% or so got no clear call; they are omitted. The call rests on the fitted dose curve; in most records, active means well fitted inhibition curve with a large enough effect; inconclusive means small, poorly fitted or top-dose-only effect; inactive means flat fitted curve, though single readings scatter. The list shows a part of the results.

Test: Acumen qHTS Assay for Inhibitors of the mTORC1 Signaling Pathway in MEF (Tsc2-/-, p53-/-) Cells: Sytravon; further: nearly all actives have a fitted effect of over 50% in size;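 on activity change, negative = inhibition: plate controls were DMSO for no effect and rapamycin for full effect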
Settings: phospho-rpS6 immunofluorescence/PI, 24 h; series mostly up to 38.3 µM; activity change, negative = inhibition: at the top concentration
Procedure, shortened: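 Plate MEFs (Tsc2-/-, p53-/-, empty vector) in DMEM/10% FBS; after 24 h add compound, incubate 24 h at 37 degree Celsius; fix in PFA/TX-100, block, stain phospho-rpS6 and 10 uM PI; scan at 488 nm; report % positive cells.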
Potency means the concentration at half of the fitted maximal effect.

Structure (SMILES) | activity change, negative = inhibition | Potency
COc1ccc(-c2noc(CSCC(=O)Nc3cccc(C(F)(F)F)c3)n2)cc1OC | inactive: -10.7% | 
CCOc1ccc(C2Nc3ccccc3-c3nnc(SCc4ccccc4)nc3O2)cc1OC (stereo unspecified) | inactive: -14.1% | 
CCCOc1ccc(-c2nn(-c3ccccc3)cc2C2NC(=O)NC(C)=C2C(=O)OC)cc1C (stereo unspecified) | inactive: 0.0374% | 
CCc1cccc(NC(=O)c2ccc(CN3C(=O)C(C)=C(c4ccc(OC)cc4)S3(=O)=O)cc2)c1 | inactive: -9.64% | 
CCC(=O)N1CCc2cc(Br)cc(S(=O)(=O)CCC(=O)NCCc3ccc(Cl)cc3)c21 | inactive: -1.43% | 
CCOc1ccccc1NC(=O)Nc1nnc(N2CCCCCC2)s1 | inactive: 1.77% | 
Cc1ccccc1CNC(=O)C1CCCN(S(=O)(=O)N(C)c2ccc(F)cc2)C1 (stereo unspecified) | inactive: -2.36% | 
CC(=O)Nc1ccc(NC(=O)CCNS(=O)(=O)c2cccc3nsnc23)cc1 | inactive: -2.71% | 
COc1cccc(NC(=O)Cn2cc(S(=O)(=O)N3CCCC3)c(S(=O)(=O)N3CCCC3)c2)c1 | inactive: -16.2% | 
CCOc1ccccc1CNC(=O)c1cc2cc(S(=O)(=O)N3CCCCC3)ccc2n1C | inactive: 2.93% | 
Cc1ccccc1CNC(=O)Cn1ncn2nc(-c3cccs3)cc2c1=O | inactive: 1.82% | 
Cc1cccc(CSc2cn(CC(=O)N3CCCC3)c3ccccc23)c1 | inactive: -2.9% | 
CCC(Oc1ccccc1)C(=O)Nc1ccc2oc(-c3ccc(OC)cc3)nc2c1 (stereo unspecified) | inactive: 2.15% | 
O=C(COc1ccc(S(=O)(=O)NC2CCCCC2)cc1)Nc1ccc(C(F)(F)F)cc1 | inactive: 1.37% | 
Cc1cc(N2CCCCC2)nc2ccc(NC(=O)/C=C/c3ccccc3OC(C)C)cc12 |  | active: 16.5 µM
Cc1ccc(CNC(=O)CSCc2ccc(F)cc2)cc1 | inactive: 12.9% | 
O=S(=O)(c1ccccc1)n1nc(-c2ccccc2)nc1NCc1ccc(Cl)cc1 | inactive: -0.0797% | 
CCOc1ccc(N(CC)S(=O)(=O)N2CCCC(C(=O)NCc3ccccc3Cl)C2)cc1 (stereo unspecified) | inactive: -9.52% | 
CCOc1cccc(CC(=O)N2CCc3c([nH]c4ccccc34)C2c2ccc(F)cc2)c1OCC (stereo unspecified) | inactive: 9.87% | 
CCOc1ccc(CC(=O)Nc2c(C(=O)c3ccc(C)cc3)oc3ccccc23)cc1OCC | inactive: -15.4% | 
CCC(=O)N1CCc2cc(Br)cc(S(=O)(=O)N3CCCC(C(=O)Nc4cccc(Cl)c4C)C3)c21 (stereo unspecified) | inactive: -0.511% | 

Structure (SMILES) | activity change, negative = inhibition | Potency
CCCCNC(=O)CCn1c(=O)c2ccccc2n(Cc2ccccc2C#N)c1=O | inactive: -18% | 
Cc1ccc(C(=O)COC(=O)C(CC(C)C)NC(=O)C2CCC(C)CC2)cc1 (stereo unspecified) | inactive: -0.367% | 
CCc1ccccc1NC(=O)c1ccc2nc(CCc3ccccc3)oc2c1 | inactive: -8.74% | 
COc1cc(C2N=C(N)Nc3nc4ccccc4n32)ccc1OCCC(C)C (stereo unspecified) | inactive: 0.566% | 
O=C(Cc1cccc([N+](=O)[O-])c1)NCc1nc2cccnc2n1Cc1ccc(F)cc1 | inactive: -7.82% | 
CC(=O)c1cccc(NC(=O)C2CCCN(c3nnc(-n4cccc4)s3)C2)c1 (stereo unspecified) | inactive: -5.6% | 
Cn1c(=O)cc(OCCCC(=O)Nc2ccc(F)cc2)c2ccccc21 | inactive: -13.8% | 
CCCN(CCC)CCCNC(=O)C1CCCN(S(=O)(=O)c2cccc3nsnc23)C1 (stereo unspecified) | inactive: -6.2% | 
Cc1ccccc1-c1nc(CS(=O)(=O)CC(=O)N2CCN(c3ccccc3)CC2)c(C)o1 | inactive: 1.08% | 
CCOC(=O)c1cc(C)n(CC2CCC(C(=O)Nc3ccc(Cl)cc3)CC2)c1C (stereo unspecified) | inactive: -2.27% | 
CCOc1ccc(CCNC(=O)Cn2nnc(-c3ccccc3)n2)cc1OCC | inactive: -1.92% | 
CC(=O)Nc1cccc(C(=O)NCc2ccc3c(c2)CCN3C(=O)c2ccccc2)c1 | inactive: -1.11% | 
COc1cc(NS(=O)(=O)c2ccc(NC(=O)c3ccccc3C(=O)O)cc2)nc(OC)n1 | inactive: 2.96% | 
COc1cc(OC)c(NC(=O)NC(C)c2c(-n3cccc3)sc(C)c2C)cc1Cl (stereo unspecified) | inactive: -2.93% | 
Cc1ccc2cccc(NC(=O)c3ccc(-c4cccc([N+](=O)[O-])c4)o3)c2n1 | inactive: 1.77% | 
COc1cccc(C(=O)Nc2cc(-c3ccccc3)no2)c1 | inactive: 3.45% | 
CC(C)CC(=O)Nc1ccc(C(=O)OCc2cc(=O)n3nc(C(C)C)sc3n2)cc1 | inactive: 22.2% | 
COc1ccc(C(=O)N2CC(=O)Nc3ccc(F)cc3C2c2ccc(F)cc2)c(OC)c1 (stereo unspecified) | inactive: -19.2% | 
CC(C)CC(NS(=O)(=O)c1ccc2c(c1)oc(=O)n2C)C(=O)NCCc1ccc(Cl)cc1 (stereo unspecified) | inactive: 2.72% | 
COC(=O)c1ccc(NC(=O)c2cc(S(=O)(=O)N3CCc4ccccc43)cn2C)cc1 | inactive: -2.38% | 
Cc1ccc(NC(=O)c2oc3ccccc3c2NC(=O)c2cc3ccccc3o2)cc1 | inactive: -12.7% | 

Structure (SMILES) | activity change, negative = inhibition | Potency
O=C(CSc1cn(CCNC(=O)c2c(F)cccc2F)c2ccccc12)Nc1ccc2c(c1)OCCO2 | inactive: -1.87% | 
O=C(OCc1cc(=O)n2nc(C3CC3)sc2n1)c1ccc(F)cc1 | inactive: 0.322% | 
CCOc1ccccc1NC(=O)Cn1cnc2onc(-c3ccc(F)cc3)c2c1=O | inactive: -2.08% | 
Cc1cc(C)cc(NS(=O)(=O)c2ccc3[nH]cc(C(=O)N4CCCC4)c(=O)c3c2)c1 | inactive: -0.259% | 
CC1=C(C(N)=O)C(c2cccc(Br)c2)n2nc(SCc3ccccc3)nc2N1 (stereo unspecified) | inactive: 0.558% | 
CCCCc1nnc(SCc2cc(=O)c3cc(C(=O)OCC)ccc3[nH]2)n1C | inactive: -0.014% | 
O=C(NCc1cccnc1)C1CCN(Cc2cc3ccccc3n2Cc2cccc(Cl)c2)CC1 | inactive: -20.2% | 
CC(C)N(Cc1ccccc1)C(=O)CCS(=O)(=O)c1cc2c(cc1Cl)NC(=O)CO2 | inactive: -12.2% | 
Cc1cc(NC(=O)C(C)C)cc(-c2nc3ncccc3o2)c1O | inactive: 0.413% | 
Cc1ccc2nc(-c3ccc(O)cc3)c(Nc3ccc4c(c3)OCO4)n2c1 | inactive: 1.48% | 
Cc1cc(C)n2nc(SCC(=O)Nc3ccccc3)nc2n1 | inactive: -0.477% | 
COc1cc(-c2nnc(SCC(=O)Nc3ccc(F)c(Cl)c3)o2)cc(OC)c1OC | inactive: 1.64% | 
CCCNC(=O)C1CCN(S(=O)(=O)c2ccc3c(c2)CCCN3C(C)=O)CC1 | inactive: -0.301% | 
Cc1cc2nc(-c3cc(NC(=O)c4cc5ccccc5o4)ccc3Cl)oc2cc1C | inactive: 9.73% | 
COc1cccc(C(=O)Nc2ccccc2OCc2cc(=O)n3cc(C)ccc3n2)c1 | inactive: 4.38% | 
CCc1ccc(NC(=O)CSc2nc3n[nH]c(C)c3c(=N)n2-c2ccccc2C)cc1 | inactive: -7.04% | 
Cc1oc(-c2ccc(Cl)cc2)nc1CS(=O)CC(=O)NCc1ccc(Cl)cc1 (stereo unspecified) | inactive: -0.548% | 
COc1ccc(N(CC(=O)NCCc2cccc(C)c2)S(=O)(=O)c2c(C)nn(C)c2C)cc1 | inactive: 1.54% | 
CCOC(=O)C1=C(CS(=O)(=O)c2c(C)cc(C)cc2C)NC(=O)NC1c1cccc(OC)c1 (stereo unspecified) | inactive: -20.4% | 
